Measurements taken from the supplement of paper PMC11417369.
The list shows a part of the results.

Tested on: PfHDP1 homeodomain (GST-tagged)
Assay: gcPBM binding intensity (ln(normalized median fluorescence intensity)); higher = stronger DNA binding
How it was run: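 For binding intensity, the highest Masliner-normalised natural-log median intensity across replicate spots of either probe orientation was taken. Protein bound to the array was stained with Alexa488 anti-GST antibody and scanned at 488 nm. The protein, GST-tagged P. falciparum DNA-binding domains from E. coli at about 25 μg on average, had been applied for 1 h to an Agilent 4 × 180k array of primer-extended double-stranded 36-bp intergenic genomic probes and negative controls.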

| Sequence | gcPBM binding intensity (ln) |
| --- | --- |
| TTTACAAAAAATTATACACACACGTACAGATAAATA [CACACA_site4678] | 6.97 |
| TCCTCATTTTATCATACACACTTGTTTATATGGGTG [CACACA_site4650] | 6.63 |
| ACCCATAAAAATTATGCACACTTAATAAAGCGAAAT [CACACA_site5722] | 10.2 |
| ATAATTTATTTTAAAAGTACTCAATTTGCTTTTCTC [XGTACX_site5749] | 6.29 |
| AAATAATTAAACATATGTACATATTATATATATATA [XGTACX_site6774] | 8.72 |
| TATATTTATTATAATTGTACATAAAATAAACTAAGA [XGTACX_site4318] | 6.41 |
| TGATTAAATAAATATATATATTTATATATTATACAG [CACACA_negctrl_site1596] | 6.26 |
| GCTCTATCAAAAAAATGTACACATATTATCATTCAT [XGTACX_site143] | 6.54 |
| CAAATAAATATTAAAAGTACACACAGATACACTAAT [XGTACX_site3749] | 6.7 |
| TATATATATATATATGTGCACTGGACATATTTTTAT [GTGCAC_site9721] | 9.84 |
| TTTTTATTTAATAGTTGTACATTGAAAAATATGTAT [XGTACX_site3025] | 6.23 |
| AATACCCAAGGACACACACACACATATATATATATA [CACACA_site8345] | 9.32 |
| ATAATATAAATACAAACACACAATTGTGTCCACATT [CACACA_site6920] | 6.79 |
| ATTTTTATTTTTATTTGTACTTATATATTCTTAAGC [XGTACX_site4122] | 6.7 |
| TTTTTAAATATAAACAAAAAAAAAAAATATATCAAT [XGTACX_negctrl_site328] | 6.33 |
| ATCATATTTATGTTGGTGCATTATGCATGGATTTTA [GTGCAC_site9795] | 10.8 |
| TTACAATTAATAAAGTGTACTTAACTATTATATATA [XGTACX_site481] | 6.11 |
| TTTTAAAGTTGTGAGCTTCATTTTTATTTATATGTA [CACACA_negctrl_site1505] | 6.21 |
| ATATATATATATGTCTGTACATAAAAAATAATAAAT [XGTACX_site3122] | 9.03 |
| TTGATCTATAATAATACACACTTACATAATTAATTA [CACACA_site6273] | 6.59 |
| AAAAATAGACAAAAGAGTACAAGAAAAAAAGGGTTC [XGTACX_site7843] | 6.61 |
| ATATTCCTACATACAACACACGACGTTCTCATAAGA [CACACA_site231] | 6.74 |

| Sequence | gcPBM binding intensity (ln) |
| --- | --- |
| GGAAAATGAAAAACAAAAAAAAAAAAAAAAAAATGA [TGCATGCA_negctrl_site432] | 6.01 |
| TCTTTTTAGATATATACACACCGTGTCTACCTATAC [CACACA_site7551] | 6.38 |
| ACATCTGTTATTTGTGGTACTAAAAAAATATATAGT [XGTACX_site8322] | 6.48 |
| AAATATATCATACAAAGTACTTGGAATTAATATATA [XGTACX_site8907] | 6.3 |
| AATATAATATAATGCACACATAAAACAAAAAAAAAA [CACACA_site3012] | 10.2 |
| TAATTTTTCCAACTTTGTACAGATATATTAATAAAA [XGTACX_site7856] | 6.22 |
| GTTGATACATGAAGCTGTACATAATATTTGTCATTT [XGTACX_site8628] | 6.42 |
| TCTTTTAAATAACAACATAAATAAATAAATAAATAA [GTGCAC_negctrl_site319] | 6.68 |
| GTCATATTAATATGTACACACATATTTATATTTATA [CACACA_site6798] | 6.62 |
| TAAATTAATAAACAAGTGCATATATATATATATATA | 9.73 |
| TTTTTACTATTTATATGACTAAAAATATATTGAATA [CACACA_negctrl_site188] | 6.07 |
| CAATTTATTTTTATTACACACTATCCAAGTAATTTC [CACACA_site7402] | 6.54 |
| TTTTATGTAACATCACGTACTTATATTTAAGTATTC [XGTACX_site7459] | 6.59 |
| CAAGCACACGGACACACACACACACGCGCACGCACA [CACACA_site6307] | 7.28 |
| TATATGTATAGAAAATGTACATATAAATATATATAT [XGTACX_site3420] | 7.94 |
| TAAAATTAATTTCTGTTGCACTTATTATTAATTAAC | 7.97 |
| TTTTTTTTTTTTTGCACACACCATATTTATAGAAAT [CACACA_site5772] | 9.04 |
| ATATTATACCCGTGTACACATTATAACCATATATAA [CACACA_site5933] | 7.27 |
| AAATTTTTTATGAACACACAAATACACGCACTCAAA [CACACA_site7286] | 7.29 |
| TAAAATATATAAAACTGTACATTTTAAAGGCACAAC [XGTACX_site8342] | 7.1 |
| AATAATAAAATAAAGGCATGCACAATATGCTATAAA [TGCATGCA_site645] | 7.96 |
| TATGTATCAAATAAATGTACATATATATATATATAT [XGTACX_site2189] | 9.5 |

| Sequence | gcPBM binding intensity (ln) |
| --- | --- |
| AATTAAAATAGTAATACACACTTCATAGGAAATGAT [CACACA_site5045] | 6.24 |
| TATAGCAAAAAATTTACACACATGTTTTTTCTATAC [CACACA_site325] | 6.74 |
| GGCATTTTATGAAGTAGTACCATAAATATTAAAGAT [XGTACX_site5287] | 6.65 |
| CCTTTATTTTATATGTGTACTAAATTGTATATATAT [XGTACX_site8717] | 6.92 |
| ATGTTTTATAAAAGGCGTACACATATGCTTAAGTAA [XGTACX_site6232] | 7.24 |
| CTGAAGGAAAAAGAAAGTACTTTTTTTTTTTTGAAG [XGTACX_site5973] | 5.91 |
| AAAAAAAAAATATCATGTACAAATATAATAAAATTT [XGTACX_site3896] | 6.27 |
| TATTAAAAAGAGGTGACACACACATATAAATCTAAA [CACACA_site9243] | 6.44 |
| TTAAAAAAATTAATATGTACATATATTTATATATAT [XGTACX_site5317] | 6.54 |
| TATATATTTTATTTATGTACGAAAATAAATTAAATT [XGTACX_site3628] | 6.07 |
| AACCACATACCTATAACACACATATACAATATAGAT [CACACA_site7023] | 6.98 |
| ACATCATAGAAAAATTGATATATATATATATATATA [CACACA_negctrl_site130] | 9.48 |
| TCCACAAAGCATGTAACACACAACATATAAGACATA [CACACA_site972] | 7.09 |
| TGTTGGCAGGTGAATGCATGCATATAAGTCTATCTG [TGCATGCA_site781] | 7.14 |
| TTCAATGCATGTCCATGTACATATAAAAAAAAATAC [XGTACX_site1597] | 6.93 |
| TTATTAAAACAAAATGTACACACATATAATTTAATG [CACACA_site8193] | 6.19 |
| TTTTTCTTTCTTTCTTTTTTAATATTACAAATGTAT [XGTACX_negctrl_site267] | 6.7 |
| AAAGTAGAATATCCCCTACACACCCAAATAATTTAC [CACACA_site1255] | 7.32 |
| AATATTTTAATGCACACACACAAAAAAAAAAAAAAA [CACACA_site7374] | 10.7 |
| AATCCTTTACGACACACACACAAAAAAAAAAAAAAA [CACACA_site6449] | 6.39 |
| TTTTTTATTGTGAAACTGATATTATATTTTTTATAA [GTGCAC_negctrl_site559] | 6.07 |
| TAAACATTTTTAATTTTGTAAAATTTTAAATAAAAA [XGTACX_negctrl_site612] | 6.16 |

| Sequence | gcPBM binding intensity (ln) |
| --- | --- |
| TGAATATTTTATGATTGTACATATTATAATAAACAT [XGTACX_site6113] | 6.5 |
| ACAAACAAAGAAAGAACACACATACACAAGATACCT [CACACA_site7353] | 6.82 |
| TTTTTGATATTAAAGGGTACATTATTTACAAAAAAA [XGTACX_site5284] | 6.11 |
| AAAACAAACATTACACGTACAAAACAAGTTATAGAC [XGTACX_site6320] | 6.47 |
| GATCCTGGTTCTTGTGGTACTTGTTCATTTGTTATA [XGTACX_site7164] | 6.69 |
| ATTCTTTTATTTAGTAGTACATTTGTATTTTATTCA [XGTACX_site5790] | 6.95 |
| ATGCTTTTTTATAAAAGTACATAAAGTTTTTACACT [XGTACX_site7307] | 6.21 |
| CTGCCTTCCATACCCACACACTTCCCATATATTTTA [CACACA_site5491] | 7.01 |
| TTAAGAATATTTTCATGTACTCATTTTTTTTGTTAT [XGTACX_site1814] | 6.19 |
| AATAAAAATATATCCACACACATATATAAATATGTA [CACACA_site6415] | 6.27 |
| ATAACTTATTTTTAAAGTACATTATTATATATATAT [XGTACX_site1620] | 8.37 |
| ATTGTAATAAATTGTAGTACATGTAAGGTTTTATTT [XGTACX_site1005] | 6.56 |
| ATTACATATGTGAGTTGTACTATAAATATATAATAT [XGTACX_site3718] | 7.28 |
| TCGAACATTAACATAACACACATATAGATTTATATA [CACACA_site7380] | 6.59 |
| AAACTTATGTTTACATGTACAGAACTTTATATTATG [XGTACX_site4843] | 6.31 |
| TATTATATATATAGGTGTACGCATTTGTCCTTTATA [XGTACX_site1385] | 6.59 |
| TTGTATGCTTCCCGACTACATTATGCCATAAATGTA [TGCATGCA_negctrl_site136] | 6.78 |
| TTATTCTTTAACTAAAATTATATATATATATTATAC [CACACA_negctrl_site1597] | 6.41 |
| TACAATTCGTAATACACACACATATATATATATATT [CACACA_site3751] | 7.16 |
| TTTATTATCTTATTCACACACATATATATATATATA [CACACA_site2869] | 9.3 |
| ATATATTTTTACCATACACACATATAACAAATATAT [CACACA_site7706] | 6.96 |
| AGAAAAAAAAAAAAAAAAAAAAAATTGAATATATAT [TGCATGCA_negctrl_site55] | 5.93 |
